Literature values in patent US20080213253A1, “COMBINATION THERAPY FOR THE TREATMENT OF CANCER” (DYAX CORP., priority 2007, published 2008).

Tests used:
Tie1 = molecular target: T1, Tie1 (Homo sapiens, UniProt P35590); conditions: statement in words, no data shown
T1 sequence (P35590 22-1138): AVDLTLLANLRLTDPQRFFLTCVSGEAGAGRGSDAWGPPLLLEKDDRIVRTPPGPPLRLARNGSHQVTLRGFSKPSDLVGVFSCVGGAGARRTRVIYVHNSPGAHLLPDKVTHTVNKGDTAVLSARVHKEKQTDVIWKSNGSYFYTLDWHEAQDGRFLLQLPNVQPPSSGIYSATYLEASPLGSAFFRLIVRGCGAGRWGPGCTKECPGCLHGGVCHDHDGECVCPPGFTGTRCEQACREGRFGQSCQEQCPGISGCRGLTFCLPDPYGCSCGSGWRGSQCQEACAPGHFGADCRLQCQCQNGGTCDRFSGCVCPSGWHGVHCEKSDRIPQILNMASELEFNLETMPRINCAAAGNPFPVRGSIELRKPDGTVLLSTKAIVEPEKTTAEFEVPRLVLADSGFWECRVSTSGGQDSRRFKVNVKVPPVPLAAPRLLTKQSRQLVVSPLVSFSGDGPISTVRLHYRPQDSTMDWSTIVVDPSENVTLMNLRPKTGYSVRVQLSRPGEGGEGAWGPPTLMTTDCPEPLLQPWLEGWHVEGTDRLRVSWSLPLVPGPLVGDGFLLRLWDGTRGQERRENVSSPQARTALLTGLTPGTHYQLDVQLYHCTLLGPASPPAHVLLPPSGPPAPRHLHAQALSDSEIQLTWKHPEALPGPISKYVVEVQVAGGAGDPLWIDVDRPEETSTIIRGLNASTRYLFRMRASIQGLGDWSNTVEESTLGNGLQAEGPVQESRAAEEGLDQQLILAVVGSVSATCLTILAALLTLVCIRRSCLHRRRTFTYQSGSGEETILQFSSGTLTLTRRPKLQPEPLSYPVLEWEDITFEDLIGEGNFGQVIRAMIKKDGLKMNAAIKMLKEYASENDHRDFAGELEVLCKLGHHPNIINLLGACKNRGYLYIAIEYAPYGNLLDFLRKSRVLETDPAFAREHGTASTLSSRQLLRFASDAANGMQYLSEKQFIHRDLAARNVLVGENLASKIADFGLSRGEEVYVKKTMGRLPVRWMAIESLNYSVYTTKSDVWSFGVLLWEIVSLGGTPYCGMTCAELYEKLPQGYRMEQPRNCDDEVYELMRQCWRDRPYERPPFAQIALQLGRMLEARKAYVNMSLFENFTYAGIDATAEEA

[1] = molecular target: T2, Tie complex (Tie1 and Tie2) (Homo sapiens, UniProt P35590); conditions: statement in words, no data shown
T2 sequence (P35590 22-1138): T1 sequence (P35590 22-1138)

B1: DX-2220: full length, IgG1, germlined human anti-Tie1 antibody E3b (SEQ ID NO:700, 701) (antibody)
heavy: EVQLLESGGGLVQPGGSLRLSCAASGFTFSMYGMVWVRQAPGKGLEWVSVISPSGGNTGYADSVKGRFTISRDNSKNTLYLQMNSLRAEDTAVYYCARAPRGYSYGYYYWGQGTLVTVSS[human IgG1 constant region left out]
light: DIQMTQSPSSLSASVGDRVTITCRASQGIGHYLAWYQQKPGKVPKLLIYTASTLQSGVPSRFSGSGSGTDFTLTISSLQPEDVATYYCQQFNSYPHTFGQGTRLEIKRTVAAPSVFIFPPSDEQLKSGTASVVCLLNNFYPREAKVQWKVDNALQSGNSQESVTEQDSKDSTYSLSSTLTLSKADYEKHKVYACEVTHQGLSSPVTKSFNRGEC
down modulation of Tie1 from the cell surface (Tie1): down modulation of Tie1 from the cell surface
Tie complex formation [1]: induce Tie complex formation
